Experimental findings from PMC10668032 are described below.

This is one part of the list. At the low end of the ranking the order means little.

The target in the test is SIX1-Q177R homeodomain (UniProt Q15475). The test is described as follows: universal protein binding microarray. Particulars: Universal all-10-mer PBM (8x60K, AMADID 030236), 300 nM GST-tagged protein, Alexa Fluor 488 anti-GST; buffer, salt, pH and temperature not stated; high values mean tight binding; most listed sequences are background and not binding sites; double strand, one strand shown.
As for AGCCCAGC, the binding signal is -0.23 E-score. As for GTACGGAC, the figure is -0.0307 E-score. The same measure for CCGAGTAA: -0.0131 E-score; for AGGTTTCC: -0.139 E-score; for CAAGGTTA: -0.0535 E-score.

Consider AGCCGGTG, for which the binding signal worked out at 0.282 E-score.

For ACGGGGAT, the binding signal worked out at 0.109 E-score. The same measure for ATCTCTCC: -0.193 E-score; for CGTGATAC: 0.248 E-score; for ATCCACCG: 0.0993 E-score.

Regarding CCACTCAA, the binding signal came out at 0.00995 E-score.

For the sequence GAAGAGTC, the binding signal amounted to 0.0321 E-score. As for GGCTGTGA, the figure is -0.0976 E-score.

Regarding ATCGGCCC, the binding signal is -0.0955 E-score. Regarding GAGAAGGC, the binding signal is -0.327 E-score. As for AGACTGAG, the figure is -0.295 E-score. As to GACCTACA, the binding signal worked out at 0.021 E-score. The same measure for CAAATGCC: -0.3 E-score; for ACCGCAGG: 0.0897 E-score; for AACTATTG: -0.0834 E-score.

For AATCGTAC, the binding signal is -0.135 E-score. Take CGCTTCTA: the binding signal amounted to 0.0576 E-score.

For the sequence GCATCCAC, the binding signal was -0.119 E-score. As for CTATGGAA, the figure is -0.0151 E-score. As for CCCCTATC, the figure is 0.0701 E-score; as for CCGTAAGC, -0.0363 E-score; as for CAACTGAA, -0.119 E-score. As for ACAGAGTA, the binding signal was 0.095 E-score. As to CATGAGTC, the binding signal is -0.122 E-score. The same measure for TGCACTAA: -0.0169 E-score. As for ATGACCCC, the figure is 0.318 E-score; as for GAACGGCC, -0.286 E-score; as for CCCGGAAA, -0.0144 E-score.

Turning to TGGTATAA, the binding signal turned out to be 0.0843 E-score.

Consider CGTCTGGC, for which the binding signal was -0.165 E-score. The same measure for GGGGAAGA: 0.071 E-score; for ATATGATA: 0.1 E-score. On to GTACAAGA, for which the binding signal was -0.0849 E-score.

Take ACACTAGC: the binding signal was found to be 0.364 E-score. For the sequence TCAAAGGA, the binding signal was -0.0664 E-score. As for CCGCAGTA, the figure is -0.0122 E-score; as for AGGGTTAA, 0.0927 E-score. Regarding TGGGGGAA, the binding signal is -0.155 E-score. The same measure for ACGACATC: -0.0111 E-score. The same measure for ACAGATCA: 0.139 E-score. As for ACCCGTCG, the figure is -0.000565 E-score; as for AGCAAGAA, -0.134 E-score; as for CTCGCCTC, -0.194 E-score. For the sequence ATATGAAA, the binding signal was -0.208 E-score. AGCGCTCC: the binding signal was -0.222 E-score. The same measure for CGCGGATA: 0.129 E-score; for ACACCGAC: 0.475 E-score. The same measure for GCAGGTGA: -0.0626 E-score. For GACCTGCC, the binding signal is -0.008 E-score. As for AGAAACTA, the figure is -0.336 E-score; as for TGAAGGAA, -0.275 E-score; as for ATTACTCA, -0.13 E-score. As for GACAGATC, the figure is -0.0909 E-score; as for ATCCAGAC, -0.00904 E-score. As for TCCCAAAA, the figure is -0.131 E-score. GAGGCGGA: the binding signal is -0.124 E-score.

On to CTTGATCA, for which the binding signal stood at 0.000565 E-score. The same measure for GTAAATTA: -0.0598 E-score; for AATTGCTC: -0.255 E-score. On to CTTATCTC, for which the binding signal was -0.176 E-score. Consider GCTGCCCC, for which the binding signal is -0.0359 E-score.

On to ATGACACA, for which the binding signal came out at 0.275 E-score. As for GCGGTTGA, the figure is -0.0459 E-score; as for AGCGAAGA, -0.208 E-score; as for CCCCGAAA, 0.168 E-score. As to CACGCTAC, the binding signal turned out to be 0.242 E-score. The same measure for GAAGCGCA: -0.155 E-score.

As for ACAGATAC, the binding signal came to 0.0934 E-score. Consider ATTATGCC, for which the binding signal was -0.0188 E-score. As for ACACATCC, the figure is 0.157 E-score; as for CTAATTAG, -0.106 E-score; as for CTAAGGCA, -0.0509 E-score. As for GCAACCGA, the figure is -0.102 E-score; as for ATGAGGCC, -0.272 E-score; as for CGTTAACC, 0.0568 E-score. On to GCGAAATA, for which the binding signal was -0.084 E-score. As for GGCGGATA, the figure is 0.22 E-score; as for GGGGCGTA, 0.159 E-score; as for TAGCTTGA, -0.204 E-score. Take CCACTGCC: the binding signal was -0.215 E-score. In the case of CCGAATGA, the binding signal is -0.0967 E-score.

Regarding GTAGGCGA, the binding signal amounted to 0.0515 E-score. The same measure for AGTCTTTC: -0.258 E-score. Turning to ACATCGGT, the binding signal is -0.0686 E-score. As for CAGGGCTC, the figure is -0.0657 E-score; as for AACAACGC, -0.108 E-score; as for GATTTCAC, -0.0472 E-score. As for ATGGTGTA, the figure is 0.479 E-score. The same measure for AAAAACTC: 0.0304 E-score; for GACAGTCA: -0.275 E-score. Take CCGTTTAG: the binding signal amounted to 0.0849 E-score.

Regarding CGCTGGAG, the binding signal was -0.00689 E-score. The same measure for AACTCAGA: 0.0526 E-score; for AACCGACT: -0.261 E-score; for CGGAACAC: 0.411 E-score. The same measure for CGGGTGTA: 0.476 E-score.

Turning to ACTCATTG, the binding signal was 0.0807 E-score. Take GCTCATGA: the binding signal is -0.128 E-score.

In the case of GGTGAGTA, the binding signal was -0.0254 E-score. As for CATTGGCC, the figure is -0.18 E-score; as for ACGATGTG, 0.00877 E-score; as for GTTTCAGA, -0.127 E-score.

In the case of ACGCAAAG, the binding signal was -0.0777 E-score. As to CGGTAAAC, the binding signal was 0.00786 E-score.

For GAAGCGCC, the binding signal is -0.183 E-score. The same measure for ATTTTAGA: -0.132 E-score; for GGTAGCGA: -0.0335 E-score. As for AAAGTTCT, the figure is -0.179 E-score. CTTCCACC: the binding signal was -0.0181 E-score. On to CGTACACA, for which the binding signal turned out to be 0.268 E-score. As for GACCCCGC, the figure is 0.248 E-score; as for ATCTTGTC, -0.056 E-score. For the sequence CCGACAGC, the binding signal was -0.0456 E-score. As for AAATGTTA, the figure is -0.0727 E-score. As for GCTGTGGA, the figure is 0.17 E-score; as for TCCCGTCA, -0.0259 E-score; as for CAAGTTCA, -0.112 E-score.

Consider CGTTGGGA, for which the binding signal was found to be 0.0501 E-score. For the sequence CATGTGAG, the binding signal is -0.0674 E-score.

For ACGCCAGG, the binding signal amounted to 0.124 E-score. With TCTCCCCA, the binding signal stood at 0.0316 E-score. The same measure for GTTTTTCA: 0.0311 E-score; for GAGGCACA: -0.0183 E-score. As for GCGCTGTA, the figure is -0.0654 E-score. As for ACGGTCAG, the figure is -0.159 E-score. Consider AGATCGCG, for which the binding signal was 0.0545 E-score. With ATTTAGAC, the binding signal was 0.0592 E-score.

On to CATTCTCC, for which the binding signal is -0.23 E-score.

Take CGGCCGCC: the binding signal is -0.145 E-score. For AAGAGCCA, the binding signal is -0.0685 E-score. As for ATTCCATG, the binding signal was 0.0159 E-score. Consider CGAACACC, for which the binding signal stood at 0.474 E-score. As for GGTAGAAC, the binding signal was -0.058 E-score.

GCGACTAA: the binding signal was 0.0294 E-score.

Regarding AAGTGCAG, the binding signal was -0.262 E-score. On to AGTGATAT, for which the binding signal was -0.0317 E-score. As for CGAAGTGA, the figure is -0.00488 E-score. Turning to ACACGTGG, the binding signal was 0.32 E-score.

In the case of AATAGCCT, the binding signal was -0.239 E-score. With CCTCCTAG, the binding signal is -0.0039 E-score. As to AAGTCAGG, the binding signal was -0.124 E-score.

As to CCAAGCTC, the binding signal was -0.0476 E-score. Regarding CTTGTCAC, the binding signal is 0.00724 E-score. As for TATGAGCA, the figure is -0.061 E-score. The same measure for AGCTGCGA: -0.225 E-score; for ATATAATC: -0.102 E-score. For the sequence CTGACAGA, the binding signal was -0.288 E-score. In the case of GGGGAGAC, the binding signal amounted to 0.0335 E-score. Consider CCTATCCA, for which the binding signal was -0.138 E-score. For CTGGGCTA, the binding signal is -0.138 E-score. AAAGAAGC: the binding signal is -0.16 E-score. Regarding AGTAGCCA, the binding signal was -0.0864 E-score. The same measure for CAACATGA: -0.14 E-score; for GACAACCC: 0.0928 E-score. As for CAGTCTCA, the figure is -0.113 E-score; as for ACGGCTAT, -0.12 E-score; as for ATAAGGGA, -0.0139 E-score. On to AACTTGCT, for which the binding signal was -0.196 E-score. The same measure for AGGGTAGC: -0.0219 E-score; for CTGTAGAC: -0.0949 E-score; for ATGGAGCC: -0.13 E-score. The same measure for CAATTCGA: -0.153 E-score. As for CCCGCTTA, the figure is -0.0868 E-score; as for ATTTACTG, -0.119 E-score. Consider GAGCTGTA, for which the binding signal was -0.32 E-score. ACATATAC: the binding signal was -0.0603 E-score. The same measure for ATGAGATC: 0.0346 E-score. As to CTGAATCC, the binding signal was -0.18 E-score. The same measure for ATCAGGAC: -0.193 E-score; for GTTGCTTA: -0.189 E-score; for CATCTTGC: -0.136 E-score. As to ACGTCACG, the binding signal was 0.0116 E-score. The same measure for ACTTCAGG: -0.00269 E-score; for CCTTAAAG: -0.195 E-score. As for CCCCCACG, the figure is 0.0253 E-score. The same measure for ACAGGCGA: -0.0581 E-score; for CAAGTAAA: -0.0231 E-score. Take GAGAATGA: the binding signal is -0.145 E-score. The same measure for ACCAGAGA: -0.103 E-score; for AAGTTGTC: 0.00368 E-score.

In the case of AACCAATG, the binding signal is -0.159 E-score.

As to GCTGAATA, the binding signal is -0.285 E-score. With AACTCAAT, the binding signal is -0.0505 E-score.

For ATTGTTCG, the binding signal was -0.148 E-score. For the sequence AGAATGGC, the binding signal was -0.245 E-score. As for AAATGGCA, the binding signal is -0.236 E-score. The same measure for TACTTGCA: -0.174 E-score; for ATGGTTGC: -0.161 E-score. Take GGCATTAC: the binding signal is -0.153 E-score. The same measure for ATGTTGAG: -0.159 E-score; for AACAGACA: 0.115 E-score.

For AACGTCTG, the binding signal is -0.103 E-score.

For the sequence AAGTCGAT, the binding signal is -0.216 E-score. The same measure for GCAGTGTA: 0.415 E-score. As for AGCTCCGA, the figure is -0.0939 E-score; as for ATCCTATC, -0.0126 E-score. Regarding CGTGAGAG, the binding signal was -0.233 E-score.

With GTCACGTA, the binding signal is -0.112 E-score. As for CGTTGCGA, the figure is -0.0818 E-score.

Consider CTATTCAG, for which the binding signal was -0.056 E-score. The same measure for AGTGAAGC: -0.221 E-score. The same measure for AACAATAC: -0.123 E-score. GCAGACCC: the binding signal came to 0.0323 E-score. As for AAGACCAG, the figure is -0.0528 E-score. The same measure for GCCGACAC: 0.422 E-score. The same measure for ACGACCTG: -0.152 E-score; for ACGAGTCG: 0.138 E-score; for ATCGACGA: -0.174 E-score.

TATGCGCA: the binding signal was -0.118 E-score.

For CACCTGAC, the binding signal came to 0.279 E-score.

Consider CCAACCCA, for which the binding signal amounted to 0.129 E-score. The same measure for ACAACTTC: -0.0929 E-score.

Regarding CCCTTGGC, the binding signal is -0.0562 E-score. The same measure for AAACTTAT: -0.0769 E-score.
